# Source: PubChem BioAssay AID1345082 (National Center for Advancing Translational Sciences (NCATS), 2018)
# In all, about 94,000 compounds went through this assay and about 4,000 (4.3%) were called active. The shares of active, inactive and inconclusive entries below differ from those in the screen. Calls follow the shape of the dose curve; as a rule, active = well fitted inhibition curve with a large enough effect; inconclusive = small, poorly fitted or top-dose-only effect; inactive = no such curve, though single readings can be large or run the other way. A potency beside an inconclusive call is a rough fit, not a confirmed value.
# Experiment: Cytotoxic Profiling in NIH 3T3 Cell Line of Diverse Libraries Using Quantitative High-Throughput Screening; also: nearly all actives have a fitted effect of over 55% in size
# Conditions: NIH 3T3 viability, CellTiter-Glo ATP luminescence, 48-72 h; activity change, negative = cytotoxicity: at 96.7 µM (top of the series); series mostly up to 96.7 µM
# Procedure, shortened: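 Luminescent ATP readout (CellTiter-Glo, 10 min RT) after 48 or 72 hr compound exposure of NIH 3T3 cells seeded at 400 cells/well in 1536-well format; quantitative HTS.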
# % is scaled to controls: 0 for no effect and ±100 for the full control effect; potency is read from the fitted curve at half-maximal effect; tags tell the direction and shape of the fitted curve.
Structure (SMILES),Potency,"activity change, negative = cytotoxicity"
O=C(NCc1ccco1)c1cccc2c1CCN2C(=O)Nc1ccc(F)cc1,"inconclusive: 56.2 µM [inhibitor, partial curve, poor fit]",
CCOc1ccc(CC(=O)N2CCC3(CC2)N=C(c2ccc(Cl)cc2)NO3)cc1,"inconclusive: 14.1 µM [inhibitor, partial curve, poor fit]",
COc1cc(CN2CCC3(CC2)[C@H](O)C[C@@H]3OCCN)cc(OC)c1,"inconclusive: 50.1 µM [inhibitor, partial curve, poor fit]",
O=C(N[C@@H]1CN(C(=O)CCc2c[nH]c3ccccc23)C[C@H]1CO)c1ccccc1,,inactive: -7.56%
COc1cc(Cl)c(C)cc1NC(=O)Cn1cccc1-c1nc(-c2ccc3c(c2)OCO3)no1,,inactive: -16.4%
Cc1ccc(C(=O)N2CCC(n3cc(-c4nc(C5CC5)no4)nn3)C2)s1 (stereo not drawn),,inactive: -25%
COc1ccc2nc3n(c2c1)[C@@H](CNCc1ccc(C#N)cc1)COC3,"inconclusive: 35.5 µM [inhibitor, partial curve, poor fit]",
Cc1ccc(Nc2ccnc(N3CCCC(C(=O)NCc4ccccc4F)C3)n2)cc1 (stereo not drawn),active: 14.1 µM,
O=C(CC(c1cccc([N+](=O)[O-])c1)c1cn(Cc2ccc(F)cc2)c2ccccc12)N1CCCC1 (stereo not drawn),"inconclusive: 17.8 µM [inhibitor, full curve]",
Cc1ccc(S(=O)(=O)N2CCN(c3ccc4nnc(-c5ccccc5)n4n3)CC2)cc1,"inconclusive: 63.1 µM [inhibitor, partial curve, poor fit]",
COc1ccc(CNC(=O)N2CCCCCC2CN2CCOCC2)cc1 (stereo not drawn),,inactive: -10.8%
COc1ccc(CN2C(=O)CO[C@H](c3ccc(NC(=O)c4ccccc4OC)cc3)[C@H]2CO)cc1,"inconclusive: 79.4 µM [inhibitor, partial curve, poor fit]",
CC(C)CN(Cc1cccnc1)C1CN(S(=O)(=O)Cc2ccccc2)C1,"inconclusive: 39.8 µM [inhibitor, partial curve, poor fit]",
CC(C)N1C(=O)C2(CCCC2)C1C(=O)NCCN1CCCCC1 (stereo not drawn),,inactive: -6.95%
COc1ccc(C2(C(=O)N3CCC(Cc4nc(-c5ccccc5)no4)CC3)CC2)cc1,"inconclusive: 28.2 µM [inhibitor, partial curve, poor fit]",
COc1ccc(CNC(=O)c2cc3c(N4CCCC4)nc(C)cn3n2)c(OC)c1,,inactive: -29.5%
Cc1cccc(-c2cccc(CN3CCCC(C(=O)NCC(F)F)C3)c2)c1 (stereo not drawn),"inconclusive: 50.1 µM [inhibitor, partial curve, poor fit]",
Cc1ccc(-c2cc(C(=O)NCc3ccc(F)cc3)c3cnn(C)c3n2)cc1,"inconclusive: 50.1 µM [inhibitor, partial curve, poor fit]",
